From the supplement of paper PMC7125110
± gives the standard error. For part of these data: This sample is rich in variants without activity.

B1: glmS ribozyme (parent)
chain: AUAAAAGCGCCAGAACUACAGAAAUGUAGUUGACGAGGAGGAGGUUUAUCGAAUUUUCGGCGGAUGCCUCCAAA

Legend:
Details in all cases: with glucosamine-6-phosphate
glucosamine-6-phosphate [1] = variants of: B1; assay: self-cleavage kobs at 40 uM GlcN6P; higher = faster cleavage; RNA array
Procedure, shortened: (§1)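 The measurements used barcoded ribozyme variants on sequenced MiSeq chips, transcribed in situ by E. coli RNA polymerase and tracked at 37 °C with a hybridised Cy3 probe. Glucosamine-6-phosphate, 40 μM to 10 mM in HEPES/KCl/Mg(OAc)2 buffer, was flowed in while tiles were imaged over ~14 h. Baseline-normalised signals, also normalised to non-cleaving reference variants, gave per-tile medians that were fit to one- or two-exponential decays for kobs. kcat and KM resulted from weighted Michaelis–Menten fits across concentrations.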

glucosamine-6-phosphate [2] = variants of: B1; assay: self-cleavage kobs at 640 uM GlcN6P; higher = faster cleavage; RNA array
Procedure, shortened: as §1

glucosamine-6-phosphate [3] = variants of: B1; assay: self-cleavage kobs at 10000 uM GlcN6P; higher = faster cleavage; RNA array
Procedure, shortened: as §1

glucosamine-6-phosphate [4] = variants of: B1; assay: self-cleavage kobs at 2500 uM GlcN6P; higher = faster cleavage; RNA array
Procedure, shortened: as §1

glucosamine-6-phosphate [5] = variants of: B1; assay: self-cleavage kobs at 160 uM GlcN6P; higher = faster cleavage; RNA array
Procedure, shortened: as §1

Row | Variant | self-cleavage kobs at 40 uM GlcN6P (glucosamine-6-phosphate [1]) | self-cleavage kobs at 640 uM GlcN6P (glucosamine-6-phosphate [2]) | self-cleavage kobs at 10000 uM GlcN6P (glucosamine-6-phosphate [3]) | self-cleavage kobs at 2500 uM GlcN6P (glucosamine-6-phosphate [4]) | self-cleavage kobs at 160 uM GlcN6P (glucosamine-6-phosphate [5])
1 | AUAAAAGCGCCAUAACUACAGAAAUGUAGUUGACGAGGAGGAGGUUUAUCAUAUUUUCGGCGGAUGCCUCCAAA | < 1e-05 s⁻¹ |  |  |  | 
2 | AUAAAAGCGCCACAACUACAGAAAUGUAGUUGACGAUGAGGAGGUCUAUCGAAUUUUCGGCGGAUGCCUCCAAA | < 1e-05 s⁻¹ | < 1e-05 s⁻¹ |  |  | 
3 | AUAAAAGCGCCAUAACUACAGAAAUGUAGUUGACGAGGAGGAGGUUUAUCGACUUUUCGGCGGAUGCCACCAAA | < 1e-05 s⁻¹ |  |  |  | 
4 | AUAAAAGCGCCAGCACUACAGAAAUGUAGUUGGCGAGGAAGAGGUUUAUCGAAUUUUCGGCGGAUGCCUCCAAA | < 1e-05 s⁻¹ |  | < 1e-05 s⁻¹ |  | 
5 | AUAAAAGCGCCACUACUACAGAAAUGUAGUUGACGAGGAGGAGGUUUAUCGAAUUUUCGGUGGAUGCCUCCAAA | < 1e-05 s⁻¹ |  |  |  | 
6 | AUAAAAGCGCCAGCACUACAGAAAUGUAGUUAACGAGGAGGUGGUUUAUCGAAGUUUCGGCGGAUGCCUCCAAA | < 1e-05 s⁻¹ |  |  |  | 
7 | AUAAAAGCGCCAGCAGUACAGAAAUGUAGUUGACAAGGAGGAGGUUUAUCGAAUUUUCGGCGGAUGCCUCCAAA | < 1e-05 s⁻¹ |  |  |  | 
8 | AUAAAAGCGCCAUAACUACAGAAAUGUAGUUGACGACGAGGAGGUUUAUCGAAUUUUCGGCGGAUGCCUCCAAA | < 1e-05 s⁻¹ | < 1e-05 s⁻¹ | < 1e-05 s⁻¹ |  | 
9 | AUAAAAGCGCCAGCACUACAGAAAUAUAGUUGACGAGGAGGAGGUUUAUCGAAUUUUCGGCGGAUGCCUCCAAA | 6.7e-05 ± 1.7e-05 s⁻¹ | 0.000887 ± 0.00023 s⁻¹ | 0.00166 ± 0.00037 s⁻¹ | 0.00142 ± 0.00041 s⁻¹ | 
10 | AUAAAAGCGCCAUAAAUACAGAAAUGUAGUUGACGAGGAGGAGGUUGAUCGAAUUUUCGGCGGAUGCCUCCAAA | < 1e-05 s⁻¹ |  |  |  | 
11 | AUAAAAGCGCCAUAACUACAGAAAUGUAGUUGACCAGGAGGAGGUUUAUCGAAUUUUCGGCGGAUGCCUCCAAA | < 1e-05 s⁻¹ |  |  |  | 
12 | AUAAAAGCGCCAAAACUACAGAAAUGUAGUUGACGAGGAGGAGGGUUAUCGAAUUUUCGGCGGAUGCCGCCAAA | < 1e-05 s⁻¹ | < 1e-05 s⁻¹ |  |  | 
13 | AUAAAAGCGCCAGCACUACAGAAAUGUAGUUGACGAGUAGGUGGUUUAUCGAAUUAUCGGCGGAUGCAUCCAAA | < 1e-05 s⁻¹ |  | < 1e-05 s⁻¹ |  | < 1e-05 s⁻¹
14 | AUAAAAGCGCCAUAACUACAGAAAUGUAGUUGACGAGGAGGAGGUUUAUCGAAUUUUCGACGGAUGCCUCCAAA | < 1e-05 s⁻¹ |  | < 1e-05 s⁻¹ |  | < 1e-05 s⁻¹
15 | AUAAAAGCGCCACAACUACAGAAAUGUAGUUGACGAGGAGGAGGUUUAUCGAAUUUUCGGCCGAUGCCUCCAAA | < 1e-05 s⁻¹ | < 1e-05 s⁻¹ | < 1e-05 s⁻¹ |  | < 1e-05 s⁻¹
16 | AUAAAAGCGCCACAACUACAGAAAUGUAGUUGACGAGGAGGAGGUUUAUCGAAUUUUCGGCAGAUGCCUCCAAA | < 1e-05 s⁻¹ |  |  | < 1e-05 s⁻¹ | 
17 | AUAAAAGCGCCAGCACUACAGAAAUGUAGUUGUCGAGGAGGAGGUUUAUCGAUUUGUCGGCGGAUGCCUCCAAA | < 1e-05 s⁻¹ |  |  |  | 
18 | AUAAAAGCGCCAUAACUACAGAAAUGUAGUUGACGAGGAGGAGGUUUAUCGAAUUUUCGGCGGACGCCUCCAAA | < 1e-05 s⁻¹ |  |  |  | 
19 | AUAAAAGCGCCAGCACUACAGAAAUGUAGUUGACGAGGAGGAGGUUUAUCGUAUUUUCGGCGGAUGCCUCCAAA | < 1e-05 s⁻¹ |  |  |  | < 1e-05 s⁻¹
